# Screen size: about 310,000 compounds; about 2,200 (0.71%) showed an effect of 50% or more. The effect is printed as a negative number. Some of the results follow.
# Biological target: human ether-à-go-go-related gene (hERG) potassium channel (human, UniProt Q12809)
# Assay: primary screen, population patch clamp on CHO cells stably expressing hERG
# human ether-à-go-go-related gene (hERG) potassium channel, sequence (Q12809 whole entry, looked up): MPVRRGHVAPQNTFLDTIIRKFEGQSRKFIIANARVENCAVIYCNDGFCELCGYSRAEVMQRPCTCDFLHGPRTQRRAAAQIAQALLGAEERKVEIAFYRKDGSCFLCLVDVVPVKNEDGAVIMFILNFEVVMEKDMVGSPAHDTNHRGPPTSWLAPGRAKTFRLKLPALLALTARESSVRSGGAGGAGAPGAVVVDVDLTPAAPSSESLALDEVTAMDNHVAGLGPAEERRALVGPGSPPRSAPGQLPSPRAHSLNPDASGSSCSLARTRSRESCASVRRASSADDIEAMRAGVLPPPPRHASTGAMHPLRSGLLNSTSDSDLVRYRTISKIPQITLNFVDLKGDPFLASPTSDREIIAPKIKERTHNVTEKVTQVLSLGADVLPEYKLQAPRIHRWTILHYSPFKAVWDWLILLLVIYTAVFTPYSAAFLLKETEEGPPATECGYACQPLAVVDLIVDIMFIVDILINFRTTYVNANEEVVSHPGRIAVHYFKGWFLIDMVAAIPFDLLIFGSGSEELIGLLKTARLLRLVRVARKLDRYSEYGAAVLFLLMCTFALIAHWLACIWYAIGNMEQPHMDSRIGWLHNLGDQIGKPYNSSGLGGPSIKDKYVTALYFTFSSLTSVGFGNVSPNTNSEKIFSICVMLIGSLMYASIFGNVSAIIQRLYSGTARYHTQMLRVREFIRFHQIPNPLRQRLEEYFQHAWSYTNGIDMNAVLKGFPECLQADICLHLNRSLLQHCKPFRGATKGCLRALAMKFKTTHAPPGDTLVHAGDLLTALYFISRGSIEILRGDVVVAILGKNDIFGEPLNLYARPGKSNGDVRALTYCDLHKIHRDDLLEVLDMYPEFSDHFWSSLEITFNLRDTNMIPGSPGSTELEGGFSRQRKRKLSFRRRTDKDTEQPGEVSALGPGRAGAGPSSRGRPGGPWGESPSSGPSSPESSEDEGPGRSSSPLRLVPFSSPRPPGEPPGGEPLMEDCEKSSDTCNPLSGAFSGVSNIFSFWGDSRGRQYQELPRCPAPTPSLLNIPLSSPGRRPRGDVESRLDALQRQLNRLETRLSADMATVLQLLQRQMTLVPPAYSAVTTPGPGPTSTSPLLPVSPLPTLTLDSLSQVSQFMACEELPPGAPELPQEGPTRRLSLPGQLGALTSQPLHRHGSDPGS
row,SMILES,"hERG current change (%, negative = inhibition) at 1uM [%]"
1,NC(=O)c1ccc(NC(=O)CN2CCOCC2)cc1,17
2,O=c1oc2c3c(nn2c2ccccc12)CCCC3,9.68
3,COC(=O)c1cc(NC(=O)CC2Oc3ccccc3NC2=O)cc(C(=O)OC)c1 (centres unmarked),13
4,Cc1ccccc1-c1nc2ccccc2c(=O)n1/N=C/c1ccccc1[N+](=O)[O-],5.94
5,Cc1ccc(/C=N/N2CCN(c3ccccn3)CC2)cc1,12.2
6,Nc1sc2c(c1C(=O)c1ccccc1)CCCC2,-13.8
7,COc1ccc(C(=O)c2no[n+]([O-])c2C(=O)c2ccc(OC)cc2)cc1,-10
8,Cn1c(=O)c2c(ncn2CC(=O)N2CCN(c3ccc([N+](=O)[O-])cc3)CC2)n(C)c1=O,-69.6
9,CC(C)[C@@H](COc1ccccc1)N1CCN(Cc2ccccc2)CCC1=O,0.973
10,O=C(C1=C(O)C(=O)N(CCN2CCOCC2)C1c1cccc(Br)c1)c1cccs1 (centres unmarked),7.09
11,CCOc1ccc(C(NC(C)=O)c2ccc(OC)c(OC)c2)cc1 (centres unmarked),11.1
12,O=C(COC(=O)c1ccc(O)cc1)Nc1cccc(S(=O)(=O)NC2=NCCC2)c1,13.7
13,Cc1ccc(CN(C(=O)c2cc(=O)c3cc(Cl)c(C)cc3o2)C2CCS(=O)(=O)C2)cc1 (centres unmarked),3.73
14,Cc1cccc(-c2ccc3ncnc(NCc4cccs4)c3c2)c1,9.92
15,CNC(=O)c1nc(C)n(-c2ccc(Cl)cc2Cl)n1,5.45
16,CCOC(=O)CSc1nc2ccc(N3CCOCC3)cc2c(=O)n1Cc1ccccc1,5.21
17,CCC(C(=O)OCC(=O)N1CCN(S(=O)(=O)c2ccc(C)cc2C)CC1)c1ccccc1 (centres unmarked),-2.2
18,CC(=NCC1CCCO1)C1=C(O)CC(C)(C)CC1=O (centres unmarked),-6.56
19,O=C(CCCc1cccs1)Nc1nc(-c2ccc(F)cc2)cs1,12
20,O=C(O)c1ccc(NCc2nc3ccccc3n2Cc2ccccc2F)cc1,11.7
21,CC(=O)OCC1OC(OCc2cn(C[C@H]3CC[C@@H]([C@@H]4CC[C@H](Cn5cc(COC6OC(COC(C)=O)C(OC(C)=O)C(OC(C)=O)C6OC(C)=O)nn5)O4)O3)nn2)C(OC(C)=O)C(OC(C)=O)C1OC(C)=O (some centres unmarked),4.63
22,O=C(O)CCc1ccc(-c2ccccc2)n1NC(=O)c1ccco1,14.5
23,Cc1cc(Cl)ccc1NC(=S)NC1CCCC1,12.9

row,SMILES,"hERG current change (%, negative = inhibition) at 1uM [%]"
1,COc1ccc(S(=O)(=O)N2CC=C(C(=O)NC3CCCC3)CC2)cc1,8
2,COc1ccc(NC2=NCC(=O)N2Cc2cccs2)cc1.Cl,0.573
3,COc1ccc(C(=O)C=CNNC(=O)c2ccc(Cl)cc2)cc1,17.6
4,CCCCNC(=O)CSc1nc2cc3c(cc2c(=O)n1CCCN(CC)CC)OCO3,-36
5,COC(=O)Cc1cc(=O)[nH]c(Nc2nc3ccccc3o2)n1,-7.47
6,COc1cccc(-c2noc(CCC(=O)NC3CCCCC3)n2)c1,0.894
7,CN(C)C(=O)On1c(-c2ccccc2)nc2ccc(Cl)cc21,-8.66
8,Cc1ccccc1C(=O)Nc1ccc2c(C#N)c3nc4ccccc4nc3n2c1,7.67
9,O=C(Cc1ccccc1)NCc1ccc(F)cc1,7.57
10,CCCCN(C(=O)COc1ccc(NC(C)=O)cc1)C1CCS(=O)(=O)C1 (centres unmarked),9.63
11,COCC(=O)n1nc(NCc2ccc(OC)cc2)nc1NCc1ccc(OC)cc1,2.97
12,Cc1cc(C)n2nc(C)c(Br)c2n1,20.3
13,COCCCn1c(=S)[nH]c2c(sc3ccccc32)c1=O,14.1
14,COCC1CCN(C(=O)c2cc(COc3cc(C)c(Cl)c(C)c3)on2)C1 (centres unmarked),11.8
15,CCNS(=O)(=O)c1cc(OC)c(Cl)cc1OC,4.57
16,Cc1ccc(NC(=O)CCC(=O)N/N=C/c2cccs2)cc1C,-1.15
17,CCCCNC(=O)COC(=O)c1ccc(Cl)c(S(=O)(=O)N2CCCC2)c1,0.201
18,CCn1c(C)cc(/C=C2/SC(=S)NC2=O)c1C,11
19,CC(=O)c1ccc(N2CCN(C(=O)c3cc(-c4cccnc4)nc4ccc(Br)cc34)CC2)cc1,3.57
20,COc1ccccc1C(CNC(=O)c1oc2ccccc2c1C)N1CCCC1 (centres unmarked),-2.47
21,Cc1ccc(S(=O)(=O)CCC(=O)OCC(=O)c2cc(C)n(C)c2C)cc1,16.4
22,COc1ccc(C(=O)NNC(=O)Cn2nnc(-c3ccc(OC)c(OC)c3)n2)cc1,4.77
23,CCCC(C)NC(=O)Cc1ccccc1[N+](=O)[O-] (centres unmarked),6.28

row,SMILES,"hERG current change (%, negative = inhibition) at 1uM [%]"
1,CSc1nc(SCC(=O)O)c2c3c(sc2n1)COC(C)(C)C3,3.5
2,O=C1C(Cl)=C(N2CCCCC2)C(=O)N1Cc1ccccc1,10.4
3,Cc1ccc(C(=O)N(CCN(C)C)CC2CCCN(Cc3ccccc3F)C2)cc1C (centres unmarked),15.3
4,Cc1cc(C)c(S(=O)(=O)NNC(=O)C2CCN(Cc3ccccc3)CC2)c(C)c1,9.25
5,CCCC(=O)Nc1ccc(C#Cc2ccccc2)cc1,3.75
6,COCCNc1oc(-c2cccs2)nc1S(=O)(=O)c1ccc(C)cc1,-4.5
7,COC(=O)C1=C(c2cccc(OC)c2OC)C[C@@H]2CC[C@H]1N2C(=O)NCc1ccco1,18.5
8,O=C(CSc1nc(C(F)(F)F)cc(=O)[nH]1)Nc1ccc2c(c1)OCCO2,-6.12
9,COC(=O)c1sc(S(=O)(=O)N2CCCCC2C)c(C(=O)OC)c1C (centres unmarked),6.86
10,CCn1c(SCC(=O)Nc2nc(C)c(C)s2)nnc1-c1ccco1,-11.2
11,CC(C)(C)NC(=O)NC(=O)COC(=O)CNS(=O)(=O)/C=C/c1ccccc1,11.2
12,O=C(O)C1CSCN1S(=O)(=O)c1cccc2nsnc12 (centres unmarked),8.05
13,COc1ccc(S(=O)(=O)Nc2cc3c(cc2C(C)=O)OCO3)cc1,12.1
14,CC(O)CNCCNCc1cccs1.Cl (centres unmarked),12.5
15,CCOc1ccc(/C=C/C(=O)Nc2ccc(N3CCOCC3)cc2)cc1,12.7
16,CSc1ncc(Cl)c(C(=O)Nc2ccccc2Br)n1,12.4
17,Cc1ccc(-c2cc(C(=O)N/N=C/C=C/c3ccco3)c3ccccc3n2)cc1C,11
18,O=C(Nc1ccc(Br)cn1)c1cccc(C(=O)Nc2ccc(Br)cn2)c1,8.39
19,O=C(Nc1ccccc1)Nc1ccccc1C(=O)NCCCN1CCOCC1,10.4
20,COc1cc(SC)ccc1C(=O)Nc1cccc(S(=O)(=O)NC2=NCCCCC2)c1,6.98
21,CC(C)CN(CC(C)C)C(=O)CC(=O)NC(=O)c1ccc(Cl)cc1,2.46
22,CC1CCc2sc(C(=O)OCC(=O)NCc3ccc(F)cc3)cc2C1 (centres unmarked),8.4
23,CCN(CC(=O)NCCCN1CCOCC1)S(=O)(=O)c1cc(Cl)ccc1Cl,9

row,SMILES,"hERG current change (%, negative = inhibition) at 1uM [%]"
1,COc1ccc(-c2ccc(SCC(=O)NC3CCCCC3)nn2)cc1,9.24
2,Cn1c(=O)c2cc(S(=O)(=O)NCCC(=O)NCC3CCCO3)ccc2n(C)c1=O (centres unmarked),9.62
3,CCN(CC)S(=O)(=O)c1ccc(N2CCCC2)c(NC(=O)C2=COCCO2)c1,-3.65
4,COc1ccc(N2CCN(C(CNC(=O)c3cccs3)c3ccco3)CC2)cc1 (centres unmarked),17.1
5,O=C(Cn1cnc2ccccc2c1=O)N1CCN(c2ccccc2)CC1,3.53
6,COc1ccc(CN2CCCN(C)CC2)c(OC)c1C,14.5
7,C/C(=N\NC(=O)Cc1c(C)[nH][nH]c1=O)c1cccc(Br)c1,8.02
8,COc1ccc(S(=O)(=O)Nc2ccccn2)c(C)c1C,15.9
9,COc1ccc(C(=O)N(Cc2sccc2C)C2CCS(=O)(=O)C2)cc1 (centres unmarked),-6.49
10,Clc1ccc(N=C2SCCS2)cc1,9.23
11,CCC(C)(C)n1nnnc1C(c1ccc(C)cc1)N1CCSCC1 (centres unmarked),-3.34
12,C/C(=N\NC(=O)CC#N)C1COc2ccccc2O1 (centres unmarked),12.1
13,COC(=O)c1ccccc1NC(=O)CCCn1nc([N+](=O)[O-])c(Br)c1C,5.37
14,O=C(Nc1cccc(C(F)(F)F)c1)c1cccc(NS(=O)(=O)c2ccc(O)c(C(=O)O)c2)c1,11.4
15,Cc1ccc(C(=O)NNC(=S)NC(=O)c2ccccc2)cc1,12.5
16,O=C1c2ccccc2C(=O)N1c1ccc(Cl)cc1,15.6
17,NC(=O)N[C@@H](Cc1c[nH]c2ccccc12)C(=O)OCC(=O)N1CCCCC1,11.8
18,CCOC(=O)c1cc(-c2ccc3c(c2)OCO3)nc2onc(C)c12,10.9
19,CCOC(=O)N1CCN(C(=O)c2c(-c3ccccc3)noc2C)CC1,1.6
20,CCC(=O)N(CCO)Cc1cc2ccc(C)c(C)c2[nH]c1=O,-11

# Reference: article PMC4336329 (PLoS ONE, 2015)
